PubChem BioAssay AID624296 (National Center for Advancing Translational Sciences (NCATS), 2012)
About 9,900 (2.8%) of roughly 350,000 compounds were called active. The shares of active, inactive and inconclusive entries below differ from those in the screen. The call rests on the fitted dose curve; in most records, active means well fitted activation curve with a large enough effect; inconclusive means small, poorly fitted or top-dose-only effect; inactive means no such curve, though single readings can be large or run the other way. No potency is given beside an inconclusive call; the fits are too rough.

Assay: A quantitative high throughput screen for small molecules that induce DNA re-replication in MCF 10a normal breast cells. Further: nearly all actives have a fitted effect of over 50% in size. On activity, positive = re-replication: % of control where 0% means no effect.
Settings: MCF 10A DNA re-replication, Hoechst nuclear intensity, 48 h; activity, positive = re-replication: at 46.1 µM (top of the series)
Potency means the concentration at half of the fitted maximal effect; tags describe the fitted curve by direction and shape.

SMILES	activity, positive = re-replication	Potency
Cc1ccc(S(=O)(=O)c2cc3c(=O)n4ccccc4nc3n(Cc3ccco3)c2=N)cc1	inactive: 8.69%	–
O=C(COc1ccccc1Br)NCCc1nc2ccccc2[nH]1	inactive: -5.21%	–
CCOc1ccc(C(=O)c2cccs2)cc1	inactive: -5.54%	–
Cn1c(Sc2ccc(C(=O)O)cc2[N+](=O)[O-])nnc1-c1ccccc1	inactive: -19.9%	–
Cc1ncc(CO)c2cc(-c3nnc(Nc4ccc5c(c4)OCO5)s3)c(=O)oc12	–	inconclusive [activator, partial curve, poor fit]
CN(C)CCNC(=O)/C(=C/c1ccc(-c2cccc(Cl)c2)o1)NC(=O)c1ccccc1	–	inconclusive [activator, single point]
CCn1cc(/C=C(\NC(=O)c2ccccc2F)C(=O)N2CCCC2)c2ccccc21	inactive: 8.04%	–
CCCC(=O)Nc1ccc(-c2nc3cc(C)c(C)cc3o2)c(O)c1	–	inconclusive [activator, partial curve, poor fit]
CCCCCc1c(C)nc(N2CCc3ccccc32)[nH]c1=O	inactive: -3.91%	–
Cn1c(C(=O)N2CCCC(C(=O)NCCN3CCOCC3)C2)cc2sccc21 (stereo not drawn)	–	inconclusive [activator, single point]
CN(C)c1ccc(-c2ccc3oc(-c4ccsc4)cc(=O)c3c2)cn1	–	inconclusive [activator, single point]
O=C(Nc1cc(Sc2nc3ccccc3s2)cc([N+](=O)[O-])c1)c1ccccc1F	–	inconclusive [activator, single point]
CN(C)/C=C/C(=O)/C=C/c1ccc(Cl)cc1	–	inconclusive [activator, single point]
CC(C)Cn1nc(C(=O)OCC(=O)NCC(F)(F)F)c2ccccc2c1=O	inactive: -0.21%	–
COc1ccc(NC(=O)CN(C)C(=O)c2cccc(S(=O)(=O)N3CCN(c4ccc(F)cc4)CC3)c2)cc1	inactive: 4.72%	–
O=C(NCc1cccc(C(F)(F)F)c1)N1CCN(S(=O)(=O)c2ccccc2F)CC1	inactive: 21.1%	–
CCOc1ccc(NC(=S)Nc2ccc(OC(F)(F)F)cc2)cc1	inactive: 2.65%	–
O=C(/C=C/c1cccc(Br)c1)c1ccc2c(c1)OCO2	–	inconclusive [activator, single point]
O=CN1CCN(C(=O)c2cc3cc(Cl)ccc3[nH]2)CC1	–	inconclusive [activator, partial curve, poor fit]
CCOc1ccc(S(=O)(=O)NCc2ccccc2Cl)cc1C(N)=O	inactive: -0.519%	–
COc1cccc(C(=O)NC(=S)N2CCN(c3ccc(C(F)(F)F)cc3[N+](=O)[O-])CC2)c1	inactive: -6.25%	–
Cc1ccc(SCc2nnc(NC(=O)c3ccccc3)s2)cc1	inactive: -185% [at 0.0737 µM]	–
COc1ccc(C(=O)Nc2ccccc2C(=O)N/N=C/c2ccco2)cc1	inactive: 6.79%	–
Cc1noc(C)c1S(=O)(=O)N1CCN(c2ccccc2Cl)CC1	inactive: 4.24%	–
COc1ccc(OC)c(NC(=O)CN2C(=O)C(C)N(c3ccc(C)cc3)C2=O)c1 (stereo not drawn)	inactive: -4.97%	–

SMILES	activity, positive = re-replication	Potency
COC(=O)c1cc(C)sc1NC(=O)C1C2C=CC(CC2)C1C(=O)O (stereo not drawn)	–	inconclusive [activator, single point]
Cc1ccc(O)c(CNc2cccc3cccnc23)c1	inactive: 14.4%	–
NCC1CCN(c2nc3ccccc3c3c2CCCC3)CC1	–	inconclusive [activator, single point]
Nc1nc(Br)c2ccccc2c1-c1ccc(F)cc1	–	inconclusive [activator, single point]
Cc1ccc(C(=O)CSc2ccc(-c3cccnc3)nn2)cc1	inactive: 10.4%	–
CS(=O)(=O)N1CCN(C(=O)c2cc(-c3ccncc3)nc3ccc(Cl)cc23)CC1	–	inconclusive [activator, partial curve, poor fit]
CC(C)(C)OC(=O)NCc1ccc(CNC(=O)c2nc[nH]c2C(=O)NCc2ccccc2)cc1	–	inconclusive [activator, single point]
O=C1CC(N(CCc2ccccc2)C(=S)Nc2ccccc2)C(=O)N1c1ccc(Br)cc1 (stereo not drawn)	–	inconclusive [activator, partial curve]
CCCCNc1c(-c2ccc(OC)c(SC3CCCCC3)c2)nc2ccc(C)cn12	–	active: 7.31 µM
Cc1cccc(NC(=O)c2ccc(N3CCCCC3)c([N+](=O)[O-])c2)n1	–	active: 10.3 µM
COc1cccc(-c2ccc(NC(=O)C3CCCN(Cc4nccn4C)C3)cc2)c1 (stereo not drawn)	–	inconclusive [activator, single point]
Clc1ccc(C2Nc3ccccc3-n3cccc32)cc1 (stereo not drawn)	–	active: 16.4 µM
CCCCC(NC(C)=O)c1nc2ccccc2n1CCC (stereo not drawn)	inactive: 1.11%	–
COc1ccccc1NS(=O)(=O)c1cc([N+](=O)[O-])ccc1N/N=C/c1c(C)[nH]c2ccccc12	–	inconclusive [activator, partial curve, poor fit]
CN(c1cccc2cccnc12)S(=O)(=O)c1ccccc1	inactive: -12.3%	–
CC(C)(C)c1ccc(C(=O)Nc2cccc([N+](=O)[O-])c2)cc1	–	inconclusive [activator, single point]
COc1ccc(-c2oc(NC(=O)CCl)c(C#N)c2-c2ccc(OC)cc2)cc1	–	inconclusive [activator, single point]
CC1CCCCN1C(=O)CSc1nc(C2CC2)nc2ccccc12 (stereo not drawn)	–	inconclusive [activator, single point]
Cc1ccc2[nH]c(=O)c(CN(CC3CCCO3)S(=O)(=O)c3c(C)ccc4nsnc34)cc2c1 (stereo not drawn)	inactive: -2.03%	–
O=C(CCC1N=C2c3ccccc3N=C(SCc3ccc(Cl)cc3)N2C1=O)NCc1ccco1 (stereo not drawn)	–	inconclusive [activator, partial curve]
CCOC(=O)N1CCC(NC(=O)CS(=O)(=O)Cc2nc(-c3cccc(Cl)c3)oc2C)CC1	inactive: 10.3%	–
O=[N+]([O-])c1[nH]cnc1/C=C/c1ccccc1	–	inconclusive [activator, single point]
COc1ccc(CCN(C)C(=O)COc2ccc(C(=O)c3ccccc3)cc2)cc1OC	inactive: 1.2%	–
COc1ccc(C(=O)NNC(=O)CSc2nc(C(C)C)nc3ccccc23)cc1	–	inconclusive [activator, single point]
Cc1ccc(NS(=O)(=O)c2ccc(NC(=O)CSc3ccc(Cl)cc3)cc2)c(C)c1	–	inconclusive [activator, partial curve]

SMILES	activity, positive = re-replication	Potency
COc1ccc2nc3sc(C(=O)NCCCN4CCc5ccccc5C4)cc3cc2c1	–	inconclusive [activator, single point]
Cc1cccc(C2=NN(c3ccccc3)[C@@H](C(=O)N3CCOC3=O)[C@@H]2c2ccccc2)c1	–	inconclusive [activator, partial curve, poor fit]
CCCCCCCCCCCCCCCCCC[N+](C)(C)CCC[Si](OC)(OC)OC	inactive: 8.81%	–
S=c1[nH]nc(-c2cc3c(s2)-c2ccccc2CC3)o1	–	inconclusive [activator, full curve, poor fit]
O=C(C1CCCCC1)N1CCN(S(=O)(=O)c2ccc(Cl)cc2)CC1	–	inconclusive [activator, single point]
CC(C(=O)N(C)c1ccccc1)N1CCN(C(=O)c2ccccc2)CC1 (stereo not drawn)	inactive: -2.91%	–
Cc1nn(-c2ccccc2)c(Cl)c1C(=O)N(C)CC(=O)Nc1cccc(F)c1	inactive: -4.35%	–
CCC1CC(C(=O)Nc2ccccc2)C(=O)O1 (stereo not drawn)	inactive: -1.32%	–
CCN(CC)c1ccc(/C=C2\NC(=O)NC2=O)cc1	–	inconclusive [activator, partial curve, poor fit]
NC(=O)c1ccsc1NC(=O)C1CCCN1S(=O)(=O)c1ccc(Cl)cc1 (stereo not drawn)	inactive: 0.962%	–
CN(C)CCCN1C(=O)c2cccc3c(Br)ccc(c23)C1=O	–	active: 7.31 µM
Cn1c(Br)nc2c1c(=O)n(Cc1ccccc1)c(=O)n2C	–	inconclusive [activator, partial curve, poor fit]
CCOC(=O)c1cc(CC)sc1NC(=O)C1CC1	–	inconclusive [activator, single point]
Cc1ccc2c(Cl)cc(Cl)c(OCC(=O)NCCc3ccccn3)c2n1	–	inconclusive [activator, partial curve, poor fit]
COc1cccc(CC(NC(C)=O)C(=O)NC2CCN(C(=O)c3ccncc3)CC2)c1OC (stereo not drawn)	inactive: -4.32%	–
Cc1ccccc1OCC(O)CN(Cc1ccccc1O)C1CCCCC1 (stereo not drawn)	–	inconclusive [activator, partial curve, poor fit]
CCCNc1nc(Nc2ccc(C)c(Cl)c2)c2cnn(C)c2n1	inactive: 23.6%	–
OC(CN1CCN(c2ccccc2)CC1)Cn1c2ccccc2c2ccccc21 (stereo not drawn)	–	inconclusive [activator, single point]
O=C(O)Cn1cc(/C=C2\SC(=O)N(c3ccccc3)C2=O)c2ccccc21	–	inconclusive [activator, single point]
CC(=O)c1ccc(OCC(O)CN2CCN(S(=O)(=O)c3c(C)cc(C)cc3C)CC2)cc1 (stereo not drawn)	–	inconclusive [activator, partial curve, poor fit]
O=C1c2cnc3nc(SCc4ccccc4)nn3c2CC2c3ccccc3CCN12 (stereo not drawn)	–	active: 2.31 µM
COc1cc(S(=O)(=O)Nc2cc(C)cc(C)c2)ccc1F	–	inconclusive [activator, single point]
CN(C)CCNc1ncnc2c1sc1nc(N3CCOCC3)c3c(c12)CC(C)(C)SC3	–	active: 20.6 µM
